From the supplement of paper PMC4967469

Assays:
AICAR = compound: NC(=O)c1ncn([C@@H]2O[C@H](CO)[C@@H](O)[C@H]2O)c1N [AICAR]; assay: Viability of human cancer cell lines after 72 h of drug (GDSC screen); conditions: top dose 2000 µM; top dose inferred
Procedure: (§1)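 Human cancer cell lines in 384-well plates, medium with 10% serum, drug for 72 h over a 256-fold dose range (nine 2-fold or five 4-fold steps up to the top dose). Adherent lines were fixed and stained with the nucleic acid dye Syto60, suspension lines read with resazurin; signal relative to control wells, capped at 0 and 100%. One two-parameter sigmoid per drug and line, fitted in a mixed model over all curves with the slope shared within a line.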

AKT inhibitor VIII = compound: O=c1[nH]c2ccccc2n1C1CCN(Cc2ccc(-c3[nH]c4cc5ncnc5cc4nc3-c3ccccc3)cc2)CC1 [AKT inhibitor VIII]; assay: as above; conditions: top dose inferred
Procedure: as §1

[1] = top dose 2.56 µM, screen: GDSC drug entry 171
[2] = top dose 10.24 µM, screen: GDSC drug entry 228

Cell Line	AUC (AICAR)	IC50 (AICAR) [µM]	AUC (AKT inhibitor VIII; [1])	IC50 (AKT inhibitor VIII; [1]) [µM]	AUC (AKT inhibitor VIII; [2])	IC50 (AKT inhibitor VIII; [2]) [µM]
EVSA-T (breast, adherent)	0.883	1610	0.982	> 2.56	0.643	1.5
EW-3 (Ewing sarcoma, adherent)	0.88	> 2000	0.897	> 2.56	0.76	4.09
EW-7 (Ewing sarcoma, semi-adherent)	0.903	> 2000	0.971	> 2.56	0.668	1.76
EW-11 (Ewing sarcoma, adherent)	0.824	1690	0.894	> 2.56	0.598	1.28
EW-13 (Ewing sarcoma, suspension)	0.884	> 2000	0.985	> 2.56	0.662	1.91
EW-18 (Ewing sarcoma, suspension)	0.86	1870	0.956	> 2.56	0.588	1.13
EW-24 (Ewing sarcoma, semi-adherent)	0.927	> 2000	0.991	> 2.56	0.912	> 10.2
EoL-1-cell (haematopoietic neoplasm, suspension)	0.492	119	0.955	> 2.56	0.779	3.69
FADU (head and neck, adherent)	0.839	1290	0.979	> 2.56	0.966	> 10.2
FLO-1 (oesophagus, adherent)	0.963	> 2000			0.889	> 10.2
FTC-133 (thyroid, adherent)	0.978	> 2000	0.908	> 2.56	0.986	> 10.2
FU97 (stomach, adherent)	0.962	> 2000	0.823	1.57	0.818	5.97
FU-OV-1 (ovary, adherent)	0.962	> 2000	0.887	> 2.56	0.91	> 10.2
G-292 Clone A141B1 (osteosarcoma, adherent)	0.863	> 2000	0.974	> 2.56	0.923	> 10.2
G-361 (melanoma, adherent)	0.972	> 2000	0.981	> 2.56	0.902	> 10.2
G-402 (soft tissue, adherent)	0.841	> 2000	0.765	1.25	0.63	1.65
G-MEL (melanoma, adherent)	0.979	> 2000	0.948	> 2.56	0.919	> 10.2
GA-10 (Burkitt lymphoma, suspension)	0.805	829	0.962	> 2.56		
GAK (melanoma, adherent)	0.987	> 2000	0.967	> 2.56	0.974	> 10.2

Cell Line	AUC (AICAR)	IC50 (AICAR) [µM]	AUC (AKT inhibitor VIII; [1])	IC50 (AKT inhibitor VIII; [1]) [µM]	AUC (AKT inhibitor VIII; [2])	IC50 (AKT inhibitor VIII; [2]) [µM]
GB-1 (glioma, adherent)	0.905	> 2000	0.943	> 2.56	0.958	> 10.2
GCIY (stomach, adherent)	0.984	> 2000	0.96	> 2.56	0.944	> 10.2
GDM-1 (acute myeloid leukaemia, suspension)	0.795	886	0.942	> 2.56	0.407	0.36
GI-ME-N (neuroblastoma, adherent)	0.956	> 2000	0.946	> 2.56	0.896	> 10.2
GMS-10 (glioma, adherent)	0.771	759	0.97	> 2.56	0.988	> 10.2
GRANTA-519 (B-cell lymphoma, suspension)	0.814	956	0.991	> 2.56	0.713	2.38
H4 (glioma, adherent)	0.968	> 2000	0.972	> 2.56	0.933	> 10.2
H9 (lymphoid neoplasm, suspension)	0.829	954	0.988	> 2.56	0.981	> 10.2
H290 (mesothelioma, adherent)	0.859	1440	0.962	> 2.56	0.987	> 10.2
H513 (mesothelioma, semi-adherent)	0.901	> 2000	0.937	> 2.56	0.908	> 10.2
H2369 (mesothelioma, adherent)	0.904	> 2000	0.652	0.428	0.974	> 10.2
H2373 (mesothelioma, adherent)	0.868	> 2000	0.965	> 2.56	0.935	> 10.2
H2461 (mesothelioma, adherent)	0.951	> 2000			0.931	> 10.2
H2595 (mesothelioma, adherent)	0.978	> 2000	0.939	> 2.56	0.921	> 10.2
H2722 (mesothelioma, adherent)	0.984	> 2000	0.937	> 2.56	0.983	> 10.2
H2731 (mesothelioma, adherent)	0.977	> 2000	0.897	> 2.56	0.727	3.15
H2795 (mesothelioma, adherent)	0.964	> 2000	0.947	> 2.56	0.826	6.1
H2869 (mesothelioma, adherent)	0.928	> 2000	0.968	> 2.56	0.888	> 10.2
H3118 (head and neck, adherent)	0.692	455	0.806	1.45	0.86	9.96

Lines with a small IC50 respond at low doses; fits outside the tested doses are given as limits. For AUC the same curve is integrated over the 256-fold range of doses and scaled to a fraction: 1 means no effect, lower means more sensitive. The top dose, if marked as inferred, comes from the curve model; the source does not state it. For part of these data: Drugs with an entry number were screened twice under separate entries, and the two screens often disagree.
